Here are results for 20 molecules from publication PMC9911399, “Two distinct binding modes provide the RNA-binding protein RbFox with extraordinary sequence specificity”.

The chains are these.
B1: UACGCCG (DNA:RNA)
RNA: GGGAGACCGGAAUUCAGAUUGUCCUACGCCGUUAAAUCCCGUCGUAGCCACCA
DNA 1: CAATCTGAATTCCGGTCTCCC
DNA 2: TGGTGGCTACGACGGGATT
B2: CACCUGA (DNA:RNA)
RNA: B1 RNA with U25C, G28C, C29U, C30G, G31A
DNA 1: CAATCTGAATTCCGGTCTCCC
DNA 2: TGGTGGCTACGACGGGATT
B3: UUUUCUC (DNA:RNA)
RNA: B1 RNA with A26U, C27U, G28U, C30U, G31C
DNA 1: CAATCTGAATTCCGGTCTCCC
DNA 2: TGGTGGCTACGACGGGATT
B4: CACGCAG (DNA:RNA)
RNA: B1 RNA with U25C, C30A
DNA 1: CAATCTGAATTCCGGTCTCCC
DNA 2: TGGTGGCTACGACGGGATT
B5: GCUGGGG (DNA:RNA)
RNA: B1 RNA with U25G, A26C, C27U, C29G, C30G
DNA 1: CAATCTGAATTCCGGTCTCCC
DNA 2: TGGTGGCTACGACGGGATT
B6: AUGAUCU (DNA:RNA)
RNA: B1 RNA with U25A, A26U, C27G, G28A, C29U, G31U
DNA 1: CAATCTGAATTCCGGTCTCCC
DNA 2: TGGTGGCTACGACGGGATT
B7: AAGCUAA (DNA:RNA)
RNA: B1 RNA with U25A, C27G, G28C, C29U, C30A, G31A
DNA 1: CAATCTGAATTCCGGTCTCCC
DNA 2: TGGTGGCTACGACGGGATT
B8: UGUUGUA (DNA:RNA)
RNA: B1 RNA with A26G, C27U, G28U, C29G, C30U, G31A
DNA 1: CAATCTGAATTCCGGTCTCCC
DNA 2: TGGTGGCTACGACGGGATT
B9: GAACUAU (DNA:RNA)
RNA: B1 RNA with U25G, C27A, G28C, C29U, C30A, G31U
DNA 1: CAATCTGAATTCCGGTCTCCC
DNA 2: TGGTGGCTACGACGGGATT
B10: UACCUGU (DNA:RNA)
RNA: B1 RNA with G28C, C29U, C30G, G31U
DNA 1: CAATCTGAATTCCGGTCTCCC
DNA 2: TGGTGGCTACGACGGGATT
B11: UUAAGUC (DNA:RNA)
RNA: B1 RNA with A26U, C27A, G28A, C29G, C30U, G31C
DNA 1: CAATCTGAATTCCGGTCTCCC
DNA 2: TGGTGGCTACGACGGGATT
B12: UAUCCUG (DNA:RNA)
RNA: B1 RNA with C27U, G28C, C30U
DNA 1: CAATCTGAATTCCGGTCTCCC
DNA 2: TGGTGGCTACGACGGGATT
B13: GGAGCUC (DNA:RNA)
RNA: B1 RNA with U25G, A26G, C27A, C30U, G31C
DNA 1: CAATCTGAATTCCGGTCTCCC
DNA 2: TGGTGGCTACGACGGGATT
B14: GGCGCGC (DNA:RNA)
RNA: B1 RNA with U25G, A26G, C30G, G31C
DNA 1: CAATCTGAATTCCGGTCTCCC
DNA 2: TGGTGGCTACGACGGGATT
B15: GUUUGUU (DNA:RNA)
RNA: GGGAGACCGGAAUUCAGAUUGUCCGUUUGUUUUAAAUCCCGUCGUAGCCACCA
DNA 1: CAATCTGAATTCCGGTCTCCC
DNA 2: TGGTGGCTACGACGGGATT
B16: GCCACUU (DNA:RNA)
RNA: B15 RNA with U26C, U27C, U28A, G29C
DNA 1: CAATCTGAATTCCGGTCTCCC
DNA 2: TGGTGGCTACGACGGGATT
B17: UGUUACC (DNA:RNA)
RNA: B15 RNA with G25U, U26G, G29A, U30C, U31C
DNA 1: CAATCTGAATTCCGGTCTCCC
DNA 2: TGGTGGCTACGACGGGATT
B18: ACGUCGG (DNA:RNA)
RNA: B1 RNA with U25A, A26C, C27G, G28U, C30G
DNA 1: CAATCTGAATTCCGGTCTCCC
DNA 2: TGGTGGCTACGACGGGATT
B19: CGGCCCC (DNA:RNA)
RNA: B1 RNA with U25C, A26G, C27G, G28C, G31C
DNA 1: CAATCTGAATTCCGGTCTCCC
DNA 2: TGGTGGCTACGACGGGATT
B20: UUGGCAG (DNA:RNA)
RNA: B1 RNA with A26U, C27G, C30A
DNA 1: CAATCTGAATTCCGGTCTCCC
DNA 2: TGGTGGCTACGACGGGATT

Numbering of substitutions follows the chain as printed; changes in the protein carry UniProt numbers. Some of the results follow.

For the assay, the target named is T1, RBFOX1 RRM (Homo sapiens, UniProt Q9NWB1 109-208).
T1 sequence: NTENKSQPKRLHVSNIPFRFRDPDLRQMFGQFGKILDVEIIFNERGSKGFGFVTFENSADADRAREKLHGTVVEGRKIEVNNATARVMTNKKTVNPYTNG
The assay is described as follows: EMSA; HiTS-Eq, 1 nM pool, 10 min; buffer printed only for the single-RNA assays: 10 mM Tris pH 7.5, 150 mM NaCl, 3.4 mM EDTA, 0.001% NP-40, 30 C. To be noted: tags: His6 N-terminal (pET28a); label: 5' 32P. A digest of the protocol: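 These values rest on relative association constants, computed from read-count changes of each RNA species versus the control reaction and normalised to the cognate motif. Reads came from free RNA recovered by 8% native PAGE after purified RbFox RRM (wild type or mutant) at increasing concentrations was equilibrated for 10 min in 50 µL with 1 nM of a 5′-radiolabelled pool with 7 randomized nucleotides and DNA-annealed flanks.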
For orientation: A gel shift assay detects complexes by their altered migration in electrophoresis.
Regarding B1, the binding signal was 0.0103 KA relative to UGCAUGU.

Consider B2, for which the binding signal was 0.00312 KA relative to UGCAUGU.

Consider B3, for which the binding signal is 0.0162 KA relative to UGCAUGU.

As for B4, the binding signal is 0.00633 KA relative to UGCAUGU.

Regarding B5, the binding signal is 0.019 KA relative to UGCAUGU.

Turning to B6, the binding signal was 0.00688 KA relative to UGCAUGU.

For B7, the binding signal is 0.00208 KA relative to UGCAUGU.

Consider B8, for which the binding signal was 0.0214 KA relative to UGCAUGU.

Regarding B9, the binding signal is 0.00748 KA relative to UGCAUGU.

Regarding B10, the binding signal was 0.0129 KA relative to UGCAUGU.

For B11, the binding signal was 0.0107 KA relative to UGCAUGU.

On to B12, for which the binding signal is 0.00862 KA relative to UGCAUGU.

For B13, the binding signal was 0.0188 KA relative to UGCAUGU.

B14: the binding signal was 0.019 KA relative to UGCAUGU.

B15: the binding signal is 0.0276 KA relative to UGCAUGU.

In the case of B16, the binding signal was 0.00498 KA relative to UGCAUGU.

Regarding B17, the binding signal was 0.00783 KA relative to UGCAUGU.

As for B18, the binding signal is 0.0158 KA relative to UGCAUGU.

Turning to B19, the binding signal was 0.00959 KA relative to UGCAUGU.

Turning to B20, the binding signal is 0.0222 KA relative to UGCAUGU.
